# Experimental data from PubChem BioAssay AID686979 (National Center for Advancing Translational Sciences (NCATS), 2013).
# In all, about 420,000 compounds went through this assay and about 50,000 (12%) were called active. Roughly 26% stayed inconclusive and do not appear here. Calls follow the shape of the dose curve; as a rule, active = well fitted inhibition curve with a large enough effect; inconclusive = small, poorly fitted or top-dose-only effect; inactive = flat fitted curve, though single readings scatter. Only a part is listed here, and it is no random draw.
# Test: qHTS for Inhibitors of human tyrosyl-DNA phosphodiesterase 1 (TDP1): qHTS in cells in presence of CPT; also: nearly all actives have a fitted effect of over 55% in size
# Conditions: chicken DT40 Tdp1-/-;hTDP1 cells + 20 nM CPT, ATP luminescence, 48 h; series mostly up to 46.2 µM; activity change, negative = growth inhibition: at the top concentration
# Excerpt: Human tyrosyl-DNA phosphodiesterase 1 (TDP1) is a novel repair gene, and we propose to use it as a new target for anticancer drug development. TDP1 is not an essential protein, but under treatment with topoisomerase I poison (camptothecin: CPT), TDP1 works as a critical factor for cell survival. To directly identify novel TDP1 inhibitors active in a cellular environment, we have knocked-out the Tdp1 gene in chicken DT40 cells (Tdp1-/-) and generated a complemented counterpart cells that contains a stable transfection of the human TDP1 gene (Tdp1-/-;hTDP1 cells). For the primary screen, Tdp1-/-;hTDP1 cells will be exposed to small molecules in the presence or absence of CPT, and their growth kinetics will be evaluated after 48 hours by measuring ATP activity. […] The hit compounds will then be evaluated in the presence or absence of CPT using Tdp1-/- cells. […] In tertiary assays, biochemical gel-based assays will be used to assess whether the hit compounds specifically target TDP1. To this end, we have screened this cell line against the MLSMR in two primary screens. In one screen we add CPT and in the other we screen in the absence of CPT; this AID represents the screen where CPT was present. NIH Chemical Genomics Center [NCGC] NIH Molecular Libraries Probe Centers Network [MLPCN] MLPCN Grant: MH095538 Assay Submitter (PI): Yves Pommier, NCI
# DT40-hTDP1 cells with 20 nM Camptothecin (add 20 microL of 1 mM CPT stock in 1 L of cell culture medium) were dispensed at 400 cells/5microL/well in tissue culture treated 1536-well white wall/solid bottom assay plates (Greiner Bio-One North America, NC, U.S.A.) using a Multidrop Combi 8 channel dispenser (Thermo Fisher, Waltham, MA, USA). 23 nL compounds and controls were transferred using the pin tool (Kalypsys, San Diego, CA, USA) to the assay plates. The assay plates were then incubated at 37 masculineC for a minimum 48 hr. Three microL of Cell Titer Glo solution was added to the plates and incubated at RT in dark for 30 min. Luminescence was read using ViewLux (Perkin Elmer) with 1 sec exposure slow speed, high gain and 2x binning.
# % is scaled to controls: 0 for no effect and ±100 for the full control effect; potency is read from the fitted curve at half-maximal effect.
SMILES,"activity change, negative = growth inhibition",Potency
Cc1ccccc1NC(=O)NCc1cccnc1,inactive: 39%,–
Cc1ccccc1-c1nc(CN2CCC(C(=O)NCCC3=CCCCC3)CC2)c(C)o1,–,active: 18.4 µM
COC(=O)[C@@H]1C[C@@H]2CC[C@@H](O)C[C@@H]2N1Cc1ccc(Cl)cc1,inactive: -13.2%,–
Cc1ccc(CNC(=O)c2ccc(Cn3c(=O)c4ccccc4n(CC(=O)Nc4ccc(C)cc4C)c3=O)cc2)cc1,–,active: 16.4 µM
COc1ccccc1N1CCN(C(=S)Nc2ccccc2)CC1,inactive: -26.3%,–
N[C@H](CSCc1ccccc1)C(=O)Nc1ccc([N+](=O)[O-])cc1,inactive: -15.2%,–
Cc1cc(C)cc(OCC(=O)NCCc2nc3ccccc3[nH]2)c1,inactive: -17.8%,–
CNc1ccc(S(=O)(=O)NC)cc1[N+](=O)[O-],inactive: -10.5%,–
Fc1cnc(Cl)nc1N1CCN(c2ccccc2)CC1,inactive: 43%,–
CC1CCCC(C)N1C(=O)COC(=O)c1cc(=O)[nH]c2ccccc12 (stereo unspecified),inactive: 30.5%,–
COc1ccc2[nH]cc(CC(N)C(=O)O)c2c1 (stereo unspecified),inactive: -20.6%,–
COc1ccc2c(c1)c(CC(=O)O)c(C)n2C(=O)c1ccc(Cl)cc1,–,inactive
Oc1cc(O)c2c(c1)O[C@H](c1ccc(O)c(O)c1)[C@H](O)C2,–,inactive
Cc1cc2ccccc2n2c(SCC(=O)Nc3ccc(S(=O)(=O)N4CCC(C)CC4)cc3)nnc12,–,active: 29.1 µM
CC(C)C[C@H]1CN(CCCC[C@@H]2CNC(=O)C(=O)N2Cc2ccccc2)C(=O)C(=O)N1CCc1ccccc1,inactive: -3.39%,–
COc1ccc(Nc2nc(C)cc(C)c2C#N)c(OC)c1,inactive: 38.4%,–
CC1(C)CCC(C)(C)NC(=S)N1,inactive: 8.2%,–
COc1ccc(-c2nn(C)c3sc(C(=O)Nc4cccc(F)c4)cc23)cc1OC,–,active: 14.6 µM
C[C@](O)(C(=O)Nc1ccc(S(=O)(=O)c2ccccc2)cc1)C(F)(F)F,inactive: -3.92%,–
CC(C)NCC(O)COc1ccccc1-n1cccc1 (stereo unspecified),inactive: 4.56%,–
COc1ccc(NC(=O)Cn2cnc3ccc(S(=O)(=O)N4CCC(C)CC4)cc3c2=O)cc1OC,–,active: 25.9 µM
CCCc1c(-c2ccc(O)cc2)nn(-c2ccc(O)cc2)c1-c1ccc(O)cc1,inactive: 4.76%,–

SMILES,"activity change, negative = growth inhibition",Potency
CC(=O)N1CCCC1C(=O)O (stereo unspecified),inactive: 2.07%,–
CN1CCN(NC(=O)c2cccc(F)c2)CC1,inactive: 38.1%,–
Cc1ccc(C)c(N2CCN(CCCNC(=O)c3cnn(-c4ccccc4Cl)c3C3CCN(C(=O)OC(C)(C)C)CC3)CC2)c1,–,active: 4.61 µM
CN(C)CCNC(=O)c1coc(=O)c(Br)c1,–,active: 2.31 µM
CCCCCc1ccc(-c2cn(Cc3ccc(C)cc3)nn2)cc1,inactive: -7.01%,–
O=S(=O)(Nc1cccc(-c2ccc(N3CCCCCC3)nn2)c1)c1cccc(F)c1,inactive: -15.4%,–
CCOC(=O)Cc1ccc(Nc2nc(NCCOC)nc3ccsc23)cc1,–,active: 13 µM
C/C=C(/C)C(=O)OC1Cc2c(ccc3ccc(=O)oc23)OC1(C)C (stereo unspecified),inactive: 8.44%,–
Cc1ccc(S(=O)(=O)NCCSc2nnnn2-c2ccccc2)cc1,inactive: -21.9%,–
Cc1cc(C(=O)COC(=O)c2ccc(O)cc2O)c(C)n1C(C)C,–,active: 18.4 µM
C#CCNC(=O)C1=C[C@H](c2ccc(C#C)cc2)C[C@H](OCc2ccc(CO)cc2)O1,inactive: -3.07%,–
O=C(Nc1cccc(Cl)c1)c1csc([C@@H]2C[C@H](O)[C@@H](CO)O2)n1,inactive: -21.5%,–
COc1cccc(C2Nc3c(F)cc(Br)cc3C3C=CCC32)c1OC (stereo unspecified),–,active: 16.4 µM
O=C(c1cc(-c2cccc(Cl)c2)on1)N1CCCCCC1,inactive: 2.7%,–
CC(=O)C[C@H]1c2cc(C(F)(F)F)ccc2S(=O)(=O)N1Cc1ccccc1,inactive: 0.704%,–
O=C(NC1C=CS(=O)(=O)C1)c1ccccc1 (stereo unspecified),inactive: 30.9%,–
CCCn1c(SCC(=O)NCC2CCCO2)nc2c1c(=O)n(C)c(=O)n2C (stereo unspecified),inactive: 2.74%,–
CC12CCC(CC1=O)C2(C)C (stereo unspecified),inactive: 7.14%,–
C[C@H]1CN([C@@H](C)CO)C(=O)CCCn2cc(nn2)CO[C@@H]1CN(C)C(=O)C1CCCCC1,inactive: 4.87%,–
CC(C)Cc1nnc(NC(=O)C2CC(=O)N(Cc3ccccc3)C2)s1 (stereo unspecified),inactive: 30.1%,–
O=C(NCc1cccs1)C1CC1,inactive: 44.7%,–
CCOc1ccc(CNC(=O)Cn2c(=O)c3cccn3c3ccccc32)cc1,inactive: -6.4%,–

SMILES,"activity change, negative = growth inhibition",Potency
COc1[nH]c(/N=C/c2ccccc2)c(C#N)c1C#N,inactive: -26.9%,–
Cc1ccc(NC(=O)CSc2nc3nc(C)c(Br)cc3[nH]2)cc1F,inactive: -7.15%,–
CCCCSCCCNC(=O)c1cn(C)c2ccc(S(=O)(=O)N3CCCC3)cc2c1=O,inactive: -21.8%,–
CCOC(=O)N1CCC(N2CCCC(C(=O)c3ccccc3OC)C2)CC1 (stereo unspecified),inactive: 34%,–
CCO[C@@H]1OC(C(=O)N2CCOCC2)=C[C@H](C)[C@H]1CCCO,inactive: -22.2%,–
Cc1cc(C)n(CCNC(=O)c2cc(COc3ccc4ncccc4c3)on2)n1,–,active: 20.6 µM
Cc1ccc(Nc2cc(=O)[nH]c(=O)[nH]2)cc1C,inactive: -17.2%,–
CS/C(=N\S(=O)(=O)c1cccs1)NC(=O)CSc1nc2ccccc2s1,inactive: -4.76%,–
COc1ccc(-n2nnnc2C(c2cccc3ccccc23)N2CCN(C/C=C/c3ccccc3)CC2)cc1 (stereo unspecified),–,active: 7.31 µM
O=C(NCc1ccccn1)c1c(-c2ccccc2)sc2ccccc12,–,active: 23.1 µM
CCOc1ccc2ccccc2c1C(=O)N[C@@H]1C(=O)N2[C@@H]1SC(C)(C)[C@@H]2C(=O)O,–,inactive
CC(CNC(=O)CN1C(=O)CCSc2ccccc21)c1ccccc1 (stereo unspecified),inactive: 55.7%,–
CC(C)NCC(O)COc1ccc(CCOCC2CC2)cc1 (stereo unspecified),inactive: 1.88%,–
O=C1[C@H]2[C@H](C=CC[C@H]2C(=O)N2CCOCC2)CCN1Cc1ccc(Cl)c(Cl)c1,inactive: 4.44%,–
CCCN1CCCC[C@H]1C(=O)Nc1c(C)cccc1C,inactive: 8.04%,–
COc1cccc(Oc2ccc(OC)cc2C(=O)O)c1,inactive: 3.84%,–
Cc1ccc(S(=O)(=O)NC(=O)NCc2ccc(F)cc2)cc1,inactive: 50.5%,–
CCC1CCCCN1CCCNC(=O)CN1C(=O)CSc2ccc(S(=O)(=O)N3CCC(C)CC3)cc21 (stereo unspecified),inactive: -11.1%,–
COC(C[C@@H](O)[C@H](C)[C@H](O)COCc1ccccc1)OC,inactive: 10.9%,–
C=CCNc1nc(-c2ccc(O)c(C(N)=O)c2)cs1,–,active: 13 µM
COc1ccc([C@H](NC(=O)OC(C)(C)C)C(=O)OC(C)(C)C)cc1,inactive: -22.6%,–
CN/C(=C\[N+](=O)[O-])NCCSCc1ccc(CN(C)C)o1,–,inactive
